About 14,000 (4.5%) of roughly 310,000 compounds showed an effect of 50% or more. The effect is printed as a negative number. Some of the results follow. *1 amine or outer side, *2 acyl side, *3 side chain or, on linkers, in order; H or OH if unused. Where a SMILES comes first, the peptide text is derived from it. Bridges are numbered along the chain shown (N, C = ends). [ ]: non-standard residue; d: D form. ξ: configuration not given here. hSer(Ph(2-I,4-NO2,6-CO)) = O=C([C@H](CCOc1c(I)cc([N+](=O)[O-])cc1C(=O)[*:3])N[*:1])[*:2]; ξD = NC(CC(=O)O)C(=O)O
What follows are compounds tested against human ether-à-go-go-related gene (hERG) potassium channel (human, UniProt Q12809) (assay: primary screen, population patch clamp on CHO cells stably expressing hERG).
Chain of human ether-à-go-go-related gene (hERG) potassium channel (Q12809 whole entry, looked up): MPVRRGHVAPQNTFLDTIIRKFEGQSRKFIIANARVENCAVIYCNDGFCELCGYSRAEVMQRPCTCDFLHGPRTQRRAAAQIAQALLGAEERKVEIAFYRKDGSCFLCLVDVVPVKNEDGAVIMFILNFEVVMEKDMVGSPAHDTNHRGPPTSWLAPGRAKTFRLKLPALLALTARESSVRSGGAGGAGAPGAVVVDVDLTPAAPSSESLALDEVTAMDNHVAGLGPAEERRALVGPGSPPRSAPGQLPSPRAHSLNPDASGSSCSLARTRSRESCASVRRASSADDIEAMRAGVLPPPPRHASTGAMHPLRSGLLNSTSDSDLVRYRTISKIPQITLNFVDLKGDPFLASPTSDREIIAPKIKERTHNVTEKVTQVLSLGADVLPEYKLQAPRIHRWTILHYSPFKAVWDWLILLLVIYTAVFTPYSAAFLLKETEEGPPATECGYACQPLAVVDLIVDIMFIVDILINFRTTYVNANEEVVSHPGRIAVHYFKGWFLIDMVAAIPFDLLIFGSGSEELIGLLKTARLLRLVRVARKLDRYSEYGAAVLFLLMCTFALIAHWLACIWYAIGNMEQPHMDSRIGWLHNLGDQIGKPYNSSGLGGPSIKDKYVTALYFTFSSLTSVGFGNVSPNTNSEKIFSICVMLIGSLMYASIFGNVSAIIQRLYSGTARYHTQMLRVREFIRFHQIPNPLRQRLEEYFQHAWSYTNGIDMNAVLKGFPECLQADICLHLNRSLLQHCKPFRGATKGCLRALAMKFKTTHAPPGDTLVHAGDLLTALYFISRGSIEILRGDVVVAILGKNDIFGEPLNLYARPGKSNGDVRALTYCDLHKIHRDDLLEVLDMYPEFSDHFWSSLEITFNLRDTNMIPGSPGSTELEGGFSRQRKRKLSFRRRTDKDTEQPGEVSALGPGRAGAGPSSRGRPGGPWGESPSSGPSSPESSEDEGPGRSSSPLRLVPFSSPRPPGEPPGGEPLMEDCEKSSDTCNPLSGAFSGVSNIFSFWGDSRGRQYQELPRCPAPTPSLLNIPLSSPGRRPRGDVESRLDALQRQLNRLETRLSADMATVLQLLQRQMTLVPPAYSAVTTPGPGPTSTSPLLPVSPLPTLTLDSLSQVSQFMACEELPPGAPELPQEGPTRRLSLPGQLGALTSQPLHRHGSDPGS
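Note: peak tail current of the secondary pulse compared with the same well before compound.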

First: OCC1(Cc2ccccc2C(F)(F)F)CCN(Cc2cccc3cnccc23)CC1
Second: Cc1cc(C(=O)Nc2cccc(S(=O)(=O)N3CCCCC3)c2)c2ccccc2n1
The “hERG current change (%, negative = inhibition) at 10uM” value of the first is lower: -11% for the first, -4.54% for the second.

First: C/C(=N\NC(=O)C1CC1)c1ccc(NC(=O)c2ccc(Br)o2)cc1
Second: O=C(N/N=C/c1ccccc1Br)C1CC1
The “hERG current change (%, negative = inhibition) at 10uM” value of the first is lower: 21.6% for the first, 40.1% for the second.

Going from `CCOC(=O)Cc1csc(NC(=O)Nc2ccc(F)cc2)n1` to `Cc1nc(CC(=O)NNS(=O)(=O)c2ccc3ccccc3c2)cs1`, the “hERG current change (%, negative = inhibition) at 10uM” value rises from 16.1% to 16.9%.

Going from `CCC1(c2ccccc2)NC(=O)N(CC(=O)Nc2cc(S(=O)(=O)N3CCOCC3)ccc2OC(C)C)C1=O` (stereo not shown) to `NC(=O)COC(=O)c1cc(S(=O)(=O)N2CCN(c3ccccc3)CC2)ccc1Cl`, the “hERG current change (%, negative = inhibition) at 10uM” value rises from -55.7% to 14.3%.

First: Cn1c(-c2c(N)n(-c3ccccc3)c3nc4ccccc4nc23)nc2ccccc21
Second: Cc1c(NS(=O)(=O)c2ccc([N+](=O)[O-])cc2)c(=O)n(-c2ccccc2)n1C
The “hERG current change (%, negative = inhibition) at 10uM” value of the first is lower: -11% for the first, 12.2% for the second.

Compared with `CCN(c1ccc(Cl)cc1)S(=O)(=O)c1nnc(NC(=O)C(C)C)s1`, `CS(=O)(=O)N(Cc1ccc(Cl)cc1)c1ccc(C(=O)NCCC2=CCCCC2)cc1` is lower in “hERG current change (%, negative = inhibition) at 10uM” value: 10.4% for the first, 0.523% for the second.

Compared with `Cc1cc(Cl)ccc1C(=O)C1CCCN(C(=O)c2cccc(N3CCCC3=O)c2)C1` (stereo not shown), `O=C(c1cccc(N2C(=O)C3C4C=CC(C4)C3C2=O)c1)N1CCCCCC1` (stereo not shown) is higher in “hERG current change (%, negative = inhibition) at 10uM” value: -20.6% for the first, -11.4% for the second.

First: COc1ccccc1NS(=O)(=O)N(C)C
Second: COc1ccccc1N1CCN(C(=O)c2ccc3[nH]c(C)c(C)c3c2)CC1
The “hERG current change (%, negative = inhibition) at 10uM” value of the first is higher: 11.3% for the first, 8.04% for the second.

Going from `CCNC(=S)Nc1cccc(F)c1C` to `Cc1ccc2oc(=O)n(Cc3ccc(F)cc3)c2c1`, the “hERG current change (%, negative = inhibition) at 10uM” value falls from 10.4% to 1.59%.

Compared with `NC(=O)C(CC(=O)O)NC(=O)[C@@H]1CCOc2c(I)cc([N+](=O)[O-])cc2C(=O)N[C@@H](CO)C(=O)N[C@@H](Cc2ccc(O)cc2)C(=O)N1` (stereo partly shown) (SY[hSer(Ph(2-I,4-NO2,6-CO))][ξD]-NH2; lactam N-3), `O=C(c1ccc([N+](=O)[O-])o1)N1CCc2ccccc21` is higher in “hERG current change (%, negative = inhibition) at 10uM” value: -4.16% for the first, 6.67% for the second.

Going from `CCN(CC)S(=O)(=O)c1ccc2c(c1)NC(=O)C1CCCN21` (stereo not shown) to `Cc1ccc(N2CC(NS(=O)(=O)c3cccnc3)CC2=O)cc1` (stereo not shown), the “hERG current change (%, negative = inhibition) at 10uM” value falls from 1.95% to -7.5%.

First: CC(=O)Nc1nc(-c2ccc3c(c2)CCO3)cs1
Second: Cc1cc(C(=O)Nc2ccc3c(c2)OCCO3)c(C)o1
The “hERG current change (%, negative = inhibition) at 10uM” value of the first is lower: -0.22% for the first, 4.25% for the second.

First: Cc1ccc(S(C)(=O)=NC(=O)NC(=O)c2c(Cl)cccc2Cl)cc1 (stereo not shown)
Second: Cc1ccc(SCC(=O)c2sc(-c3ccccc3)nc2C)cc1
The “hERG current change (%, negative = inhibition) at 10uM” value of the first is lower: -5.16% for the first, 1.92% for the second.

Going from `COC(=O)C1=C(C)NC(C)=C(C(=O)OC)C1c1ccc(NC(C)=O)cc1` to `N#Cc1ccc(NC(=O)COC(=O)CCc2nc3ccccc3c(=O)[nH]2)cc1`, the “hERG current change (%, negative = inhibition) at 10uM” value falls from 14.8% to -4.6%.

Going from `CC(C)(C)c1ccc(OC(=O)N2CCCCC2)cc1` to `CN1CCN(c2nc3ccccc3nc2C(C#N)C(=O)OC2CCCCC2)CC1` (stereo not shown), the “hERG current change (%, negative = inhibition) at 10uM” value falls from 19.8% to -79.5%.

Going from `Cc1cc2cc3c(cc2nc1SCC(=O)Nc1c(C)cccc1C)CCC3` to `O=C(CN1C(=O)NC2(CCc3ccccc32)C1=O)NCc1ccccc1Cl` (stereo not shown), the “hERG current change (%, negative = inhibition) at 10uM” value rises from -9.05% to 7.01%.

Going from `CCOc1ccc(C2C=C(c3ccc(C)cc3)Nc3nnnn32)cc1` (stereo not shown) to `O=C(Oc1ccc(-c2nnco2)cc1)C1CCN(C(=O)c2ccc(F)cc2)CC1`, the “hERG current change (%, negative = inhibition) at 10uM” value rises from -14.4% to -8.94%.

Going from `O=C(c1ccc2ncsc2c1)N1CCN(c2ccccc2Cl)CC1` to `CCOc1ccccc1N1CCN(C(=O)CNC(=O)c2sc3ccccc3c2Cl)CC1`, the “hERG current change (%, negative = inhibition) at 10uM” value rises from -19.4% to 17.4%.

Going from `O=C(NC1CCN(Cc2ccccc2)CC1)C1CCN(S(=O)(=O)c2cccc3nsnc23)CC1` to `Cn1cc([N+](=O)[O-])c(C(=O)N(Cc2ccccc2)Cc2ccccc2)n1`, the “hERG current change (%, negative = inhibition) at 10uM” value rises from -23.7% to -7.1%.

Going from `O=C(Cc1ccc(Br)cc1)Nc1ncc([N+](=O)[O-])s1` to `Cc1ccc(C(=O)Nc2ccccc2C(=O)O)cc1S(=O)(=O)Nc1ccc(Br)cc1`, the “hERG current change (%, negative = inhibition) at 10uM” value rises from 11.7% to 21.3%.

Going from `Cn1nc(/C=C/c2ccccc2)ccc1=O` to `Cc1cc(F)ccc1S(=O)(=O)Nc1ncnc2sccc12`, the “hERG current change (%, negative = inhibition) at 10uM” value rises from 6.6% to 15.4%.

For `CCCCCN(C(=O)CCC(=O)OCCOc1cccc(Cl)c1)c1c(N)n(CCCC)c(=O)[nH]c1=O`, the “hERG current change (%, negative = inhibition) at 10uM” value was -0.473%.
